# From PMC4336329 (PLoS ONE, 2015)
# The campaign covered roughly 310,000 compounds. About 14,000 (4.5%) showed an effect of 50% or more. Effects have a minus sign here. Some of the results follow.
# Molecular target: human ether-à-go-go-related gene (hERG) potassium channel (human, UniProt Q12809)
# Assay: primary screen, population patch clamp on CHO cells stably expressing hERG
# 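Note: peak tail current of the secondary pulse compared with the same well before compound.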
# Sequence of human ether-à-go-go-related gene (hERG) potassium channel (Q12809 whole entry, looked up): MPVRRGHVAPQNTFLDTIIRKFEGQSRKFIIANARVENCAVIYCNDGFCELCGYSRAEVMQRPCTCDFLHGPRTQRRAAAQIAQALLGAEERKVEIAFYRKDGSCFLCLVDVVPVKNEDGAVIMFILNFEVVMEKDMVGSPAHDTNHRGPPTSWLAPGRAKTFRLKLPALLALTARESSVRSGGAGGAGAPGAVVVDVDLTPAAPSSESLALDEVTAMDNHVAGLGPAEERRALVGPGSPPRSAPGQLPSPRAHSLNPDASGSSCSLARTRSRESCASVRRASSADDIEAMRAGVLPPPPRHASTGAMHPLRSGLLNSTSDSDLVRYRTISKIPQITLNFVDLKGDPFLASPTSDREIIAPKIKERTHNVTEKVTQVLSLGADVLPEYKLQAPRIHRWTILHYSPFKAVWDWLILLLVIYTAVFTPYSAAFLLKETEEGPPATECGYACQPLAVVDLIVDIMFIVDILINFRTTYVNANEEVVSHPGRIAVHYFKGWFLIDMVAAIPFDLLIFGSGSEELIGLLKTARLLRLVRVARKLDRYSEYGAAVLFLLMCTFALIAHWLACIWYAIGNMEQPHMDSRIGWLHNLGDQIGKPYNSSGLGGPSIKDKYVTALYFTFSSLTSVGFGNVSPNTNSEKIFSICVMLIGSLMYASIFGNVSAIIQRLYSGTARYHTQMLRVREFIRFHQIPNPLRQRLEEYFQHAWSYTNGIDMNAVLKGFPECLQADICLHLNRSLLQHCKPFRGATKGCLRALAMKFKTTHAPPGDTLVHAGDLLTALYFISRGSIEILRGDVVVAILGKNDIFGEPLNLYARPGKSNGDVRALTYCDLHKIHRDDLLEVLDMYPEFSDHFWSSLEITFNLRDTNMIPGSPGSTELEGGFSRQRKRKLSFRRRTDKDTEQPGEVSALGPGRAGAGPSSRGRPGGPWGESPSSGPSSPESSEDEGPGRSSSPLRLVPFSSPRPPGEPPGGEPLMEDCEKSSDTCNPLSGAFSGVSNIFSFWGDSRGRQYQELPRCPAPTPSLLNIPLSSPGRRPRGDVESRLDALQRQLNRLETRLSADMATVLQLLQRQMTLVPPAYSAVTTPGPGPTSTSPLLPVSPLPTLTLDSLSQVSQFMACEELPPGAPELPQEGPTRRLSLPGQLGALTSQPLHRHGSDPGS
row,Compound,"hERG current change (%, negative = inhibition) at 10uM [%]"
1,Cc1ccccc1C(=O)N1CCN(C(c2ccccc2)c2ccccc2)CC1.Cl,2.11
2,CCOc1cc(CNCc2ccccn2)cc(Cl)c1OC.Cl,29.6
3,CCOC(=O)C1CCN(CC(O)COC(CC)c2ccccc2)CC1.Cl (stereo not shown),-63.7
4,CC1S/C(=N/N=C/c2ccco2)NC1=O (stereo not shown),10.4
5,CCOC(=O)Cc1csc(NC(=O)CSc2nnc(-c3ccncc3)n2Cc2ccco2)n1,-5.63
6,Cn1c(N)c(C(=O)COC(=O)C2=NNC(=O)CC2)c(=O)n(C)c1=O,20.2
7,COc1ccccc1NC(=O)C/C(C)=N/NC(=O)c1ccccn1,0.673
8,COc1cc(OC)cc(-c2c(-c3cccs3)c3cc(-c4ccc(OC)cc4F)ccc3n2C)c1,18.6
9,[Na+].[S-]c1nnc(-c2ccc(Cl)cc2)n1Cc1ccccc1,21.4
10,Cc1ccc(C)c(OCc2nc3ccc(S(=O)(=O)Nc4c(C)n(C)n(-c5ccccc5)c4=O)cc3[nH]2)c1,7.31
11,Cc1cc(=O)oc2c(C)c(OC(C)C(=O)NCCCN3CCOCC3)ccc12 (stereo not shown),-5.21
12,CCN1CCN(c2cc(C)c3cc(NC(=O)c4ccc5c(c4)OCO5)ccc3n2)CC1,-38.6
13,CCS(=O)(=O)N1CCc2cc(OC)c(OC)cc2C1,4.18
14,CC(C)NC(=O)CN(C)S(=O)(=O)c1ccc(F)cc1,11.1
15,O=C(Nc1cc(N2CCCCC2)ncn1)c1ccccc1,-1.93
16,CN(C)CCCNCCCNC(=O)/C(=N\O)c1ccccn1,9.88
17,CC(C)(C)c1ccc(OCC(=O)NNC(=S)NC(=O)c2ccco2)c(Br)c1,24.6
18,ClC1(CNc2ccccc2)CCN(Cc2ccccc2)CC1.O=C(O)/C=C\C(=O)O,-9.96
19,O=C(C1CC(=O)N(c2ccc(Cl)cc2)C1)N1CCCCCC1 (stereo not shown),-8.92
20,O=C(NCCN1CCN(c2ccccc2)CC1)C1CCN(S(=O)(=O)c2cccc3nonc23)CC1,-2.99
21,O=C(Cc1cccc2ccccc12)N1CCN(c2ncccn2)CC1,-18.8
22,O=C(Cc1ccccc1)N1CCN(CC2CC=CCC2)CC1 (stereo not shown),-3.05
23,CNc1nc(C)nc(-n2nc(C)cc2C)n1,15.8

row,Compound,"hERG current change (%, negative = inhibition) at 10uM [%]"
1,CCCCOc1ccc(-c2nc(SCC(N)=O)n[nH]2)cc1,-1.68
2,O=C(NCc1ccc(F)cc1)C1CCCN(C(=O)Nc2ccccc2)C1 (stereo not shown),-38.5
3,O/N=C/c1ccccc1Oc1ccc(Cl)cc1,-33.9
4,CCNc1c(NC(C)=O)c(=O)oc2ccccc12,21
5,Cn1c(SCc2nc(-c3ccc(Cl)cc3)no2)nnc1-c1ccco1,-53.2
6,O=C1C(=O)N(CCN2CCCCC2)c2ccccc21,-11.5
7,CC(C)(C)c1ccc(C(=O)NC(Cc2ccccc2)C(=O)O)cc1 (stereo not shown),-4
8,Cc1cccc(CC(=O)c2c[nH]c3ccccc23)c1,12.1
9,CCCCn1c(CN2CCN(C(=O)OCC)CC2)nc2c1c(=O)n(C)c(=O)n2C,-18.1
10,Cc1c(CN2CCc3c([nH]c4ccccc34)C2C2CCCCC2)cnn1C (stereo not shown),-38.7
11,CNc1nnc(-c2ccncc2)s1,-0.587
12,Cc1csc(NC(=O)C2CC(=O)N(c3ccc(C)c(C)c3)C2)n1 (stereo not shown),9.45
13,Cc1ccccc1Cn1nnc(-c2ccc(C(=O)O)cc2)n1,5.45
14,COCc1cc(Sc2ccc(Cl)cc2Cl)nc(-c2ccccc2)n1,11.4
15,Cc1cc([N+](=O)[O-])nn1CC(=O)N1CCCc2ccccc21,-1.79
16,Cc1cc(C)n(C(=O)CCNC(=O)c2ccccc2Cl)n1,6.77
17,Cc1sc[n+](CC(=O)c2ccc(Br)cc2)c1C.[Br-],-12.7
18,O=S(=O)(Nc1ccccc1)c1ccc(Oc2ncc(C(F)(F)F)cc2Cl)cc1,-3.02
19,CC(C)Oc1cccc(C(=O)Nc2ccc(N3CCN(C)CC3)cc2)c1,-24.5
20,CC1CCCCC1NC(=O)c1ccncc1 (stereo not shown),6.03
21,CCC(C)[C@H](NS(=O)(=O)c1ccc(C)cc1)C(=O)N1CCC(C(=O)N2CCC(C(=O)OC)CC2)CC1 (stereo partly shown),-1.88
22,Cc1ccc(C(=O)Cn2c3[n+](c4ccccc42)CC(O)CS3)cc1.[Br-] (stereo not shown),20.4
23,CCOc1ccc(CN(C)C(=O)CCc2ccc(S(=O)(=O)N3CCCCCC3)cc2)cc1,-45.1

row,Compound,"hERG current change (%, negative = inhibition) at 10uM [%]"
1,CS(=O)(=O)c1ccc(-c2cn3cc(C(=O)O)ccc3n2)cc1,25.9
2,O=C(CCN1CCCC1)Nc1cccc(Br)c1,-20.6
3,Cc1ccc(NC(=O)CN(C)CC(=O)Nc2ccccc2Oc2ccccc2)cc1.O=C(O)C(=O)O,16.1
4,CC1=C(C(=O)Nc2ccccn2)C(c2cccnc2)n2nnnc2N1 (stereo not shown),6.57
5,COc1cccc(NC(=O)COC(=O)c2nc3nccc(C)n3n2)c1,-5.88
6,CC1(C)CC(=O)N(c2ccc(C#N)cc2)C(=O)C1,18.5
7,CCOC(=O)c1ccc(NC(=O)CNC(=O)c2ccco2)cc1,13.8
8,CN(c1ccccc1)c1nc2ccsc2c(=O)s1,4.47
9,O=C(NCc1ccco1)C1CCCN1C(=O)Nc1ccccc1 (stereo not shown),-1.65
10,O=[N+]([O-])c1cc(-c2ccc(/C=N/n3cnnc3)o2)ccc1Cl,-12.5
11,Cn1c(SCC(=O)c2ccccc2)ncc(C(=O)Nc2ccc(F)cc2)c1=O,12.4
12,Cc1ccc(N2CC(C(=O)Nc3nnc(SCCC4OCCO4)s3)CC2=O)cc1 (stereo not shown),8.84
13,COc1ccccc1N1CCN(CCc2n[nH]c(=S)n2-c2ccccc2)CC1,8.54
14,CC(C)(C)NC(=O)CCC1COc2ccccc2O1 (stereo not shown),-4.27
15,CCOc1ccc(/C=C(\C#N)C(=O)NCC2CCCO2)cc1OCC (stereo not shown),-5.95
16,CN1CCN(S(=O)(=O)c2ccc(NC(=O)C3CCCO3)cc2)CC1 (stereo not shown),-4.63
17,CCOP(=O)(OCC)C(O)c1ccc2c(c1)OCO2 (stereo not shown),12.2
18,CNC(=O)/C(=C\c1cccc(Oc2ccccc2)c1)NC(=O)c1ccccc1,12.4
19,Cc1ccc(C)c(OCC(=O)N(C)CC(=O)Nc2ccc(Cl)c(C(F)(F)F)c2)c1,1.6
20,COc1ccc(NC(=O)C2CCCN(S(=O)(=O)c3ccc4c(c3)CCCN4C(C)=O)C2)cc1Cl (stereo not shown),9.52
21,Cc1nn(CC(=O)NCCCc2ccccc2)c(C)c1[N+](=O)[O-],-2.28
22,CCc1nc2ccccc2c(=O)n1/N=C/c1ccc(OC)cc1,-1.67
23,O=C(NCCCCc1ccccc1)C1CC(c2ccccc2[N+](=O)[O-])=NO1 (stereo not shown),-32.9

row,Compound,"hERG current change (%, negative = inhibition) at 10uM [%]"
1,CC(C)(C)c1ccc(CNc2cc(N3CCOCC3)ccc2[N+](=O)[O-])cc1,15.3
2,O=C(CN1C(=O)NC2(CCCC2)C1=O)Nc1nc(-c2ccc(F)cc2)cs1,3.26
3,Cc1ccc(NC(=S)N(CCCN(C)C)Cc2cc3cc4c(cc3[nH]c2=O)OCO4)c(C)c1,-35
4,CN1C(C(=O)NCc2cccc(C(F)(F)F)c2)CC2Cn3c(nc4cc(Cl)c(Cl)cc43)C21 (stereo not shown),-73.6
5,COc1ccc(OC(=O)COc2ccc(C)cc2)cc1,20.5
6,CCOC(=O)c1ccc(NC(=O)CC2SC3=NCCN3C2=O)cc1 (stereo not shown),9.01
7,CCc1cc(=O)oc2cc(OCC(=O)NC3CC(C)(C)NC(C)(C)C3)ccc12,9.86
8,CC1CCCN(C(=O)CN2C3CCC2CC(O)(c2ccc(F)cc2)C3)C1 (stereo not shown),-6.54
9,CSC1=NCCN1C(=O)COc1ccc2ccccc2c1,12.6
10,CC(=O)Nc1nc2cc(C(N)=O)ccc2s1,-4.58
11,Cc1[nH]c2ccccc2c1/C=N/NC(=O)CNC(=O)c1ccccc1,-9.38
12,CN1CCN(C(=O)c2ccccc2N(Cc2ccccc2)S(C)(=O)=O)CC1,-4.91
13,CCN(c1ccccc1)S(=O)(=O)c1ccc2c(c1)CCCN2C(C)=O,0.361
14,CC(=O)Nc1ccc(S(=O)(=O)CCC(=O)O)cc1,17.5
15,CCN(CC)CC(O)CN1c2ccccc2Sc2ccccc21 (stereo not shown),-25
16,CC(=O)Nc1ccc(OCC(=O)c2cc(C)ccc2C)cc1,9.21
17,Cn1cc(C(=O)Nc2ccc3c(c2)CCC3)cn1,1.88
18,Cc1nc(N=Nc2ccc(O)cc2)n[nH]1,7.01
19,NNC(=O)c1ccccc1CO,3.65
20,COc1ccc(-c2nnc3ccc(SCC(=O)N4CCCCC4)nn23)cc1OC,-14.4
21,CCOc1ccc2[nH]c3c(NCCc4ccc(OC)c(OC)c4)ncnc3c2c1,-17.3
22,COCCC(=O)N1CCC(Oc2ccc(C(=O)N(C)C3CCCCC3)cc2)CC1,15.6
